According to PubChem BioAssay AID493208 (National Center for Advancing Translational Sciences (NCATS), 2011):
In all, about 44,000 compounds went through this assay and about 340 (0.77%) were called active. About 5% were inconclusive and are not listed. Calls follow the shape of the dose curve; as a rule, active = well fitted inhibition curve with a large enough effect; inconclusive = small, poorly fitted or top-dose-only effect; inactive = flat fitted curve, though single readings scatter. Some of the results follow.

Test: Acumen qHTS Assay for Inhibitors of the mTORC1 Signaling Pathway in MEF (Tsc2-/-, p53-/-) Cells: Sytravon;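 also: plate controls were DMSO for no effect and rapamycin for full effect; nearly all actives have a fitted effect of over 50% in size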
Settings: phospho-rpS6 immunofluorescence/PI, 24 h; series mostly up to 38.3 µM; activity change, negative = inhibition: at the top concentration
Description: NIH Molecular Libraries Probe Production Centers Network [MLPCN] NIH Chemical Genomics Center [NCGC] MLPCN Grant: NS059428-01 Assay Submitter (PI): Blenis, John; Hoffman, Greg; Harvard University NCGC Assay Overview: The mammalian target of rapamycin (mTOR) is an intracellular serine/threonine kinase Aberrant regulation of mTOR signaling plays a causative role in a number of human diseases, including cancer, benign tumors such as lymphangioleiomyomatosis (LAM) and Tuberous Sclerosis Complex (TSC), and metabolic diseases such as diabetes and obesity. This project aims to identify inhibitors of ribosomal protein S6 (rpS6) phosphorylation. The phosphorylation of rpS6 is a key event downstream of mTOR activation. The assay uses a phospho-specific antibody of phospho-rpS6 to detect inhibitors of mTOR activation. Mutations in the Tsc1 and Tsc2 genes are the underlying genetic lesions responsible for TSC, causing constitutive activation of the mTORC1 pathway and leading to profound effects on cell metabolism. Aberrant metabolism in cancer has recently received significant attention as a target to develop therapeutic agents in the treatment of cancer.1 As Tsc2-/- cells have lost the ability to respond to energy and growth factor deprivation, these cells are unable to properly down regulate cellular biosynthetic processes in response to metabolic stress, and are thus extremely sensitive to glucose deprivation-induced death.2 A central goal of this project is to explore the unique cell survival and metabolic properties of cells with Tsc1 or Tsc2 by screening for compounds that selectively target the Tsc2-/- MEFs by screening both Tsc2-/- and WT MEF cell lines. We hope to better understand these aspects of TSC physiology in order to exploit them for therapeutic benefit.
NCGC Acumen Assay Protocol Summary: For quantitative high throughput analysis of mTORC1 signaling, we developed a cell-based assay for immuno-fluorescence based detection of rpS6 phosphorylation on the Acumen Explorer that will be used a platform for the primary small molecule screen. Mouse embryonic fibroblasts (MEFs) are cultured in 1536-well plates using DMEM + 10% FBS. Twenty-four hrs after plating, test compounds (solubilized in DMSO) are delivered and incubated with the cells for 24 hrs at 37 degree Celsius. Following the incubation, media with compound is aspirated and the cells are fixed in 4% paraformaldehyde (PFA) containing PBS + 0.2% TX-100. Next, PFA is aspirated, cells are washed two times with PBS plus 0.2% TX-100 and the cells are blocked for 1 hr at room temperature (blocking buffer: LiCOR Blocking Buffer plus 0.2% TX-100). […] Cells are washed two times with PBS plus 0.2% TX-100, and stained with 10 uM propidium iodide (PI) for 20-25 minutes for cell number measurement (1:500 dilution of Hoescht staining is also added for IN Cell imaging). The plates are scanned on the Acumen Explorer laser scanning instrument (TTP Labtech) using the 488nm laser for simultaneous excitation of the Alexa-488 and PI. […] The normalized phospho-S6 staining is calculated as the ratio of the integrated Alexa 488 intensity divided by the integrated PI intensity for the single concentration rapamycin control (7.5 nM) and DMSO columns. […] Inhibition of the pathway is defined based on the normalized phospho-S6 intensity in rapamycin treated cells. Active cells are defined as those with a normalized phospho-S6 staining above this threshold, and each treatment is reported as the % positive cells in the well, where thresholds are defined by selecting wells with the highest and lowest signal and differentiating between the % non-active and % active populations. In addition to the pathway specific phospho-S6 endpoint, the number of PI stained cells from the Acumen is recorded as a measure of cell viability. The primary screen was performed with a MEF cell line in a defined genetic background, Tsc2-/-, p53-/- cell line stably transfected with an empty vector control (Tsc2-/- MEF).

Activity change, negative = inhibition, inactive:
CN(CC(=O)Nc1ccc(Cl)cc1F)S(=O)(=O)c1ccc2c(c1)n(C)c(=O)c(=O)n2C -11.6%, Cc1sc2ncn(CC(=O)N3CCN(c4ccccc4)CC3)c(=O)c2c1S(=O)(=O)N1CCN(c2ncccn2)CC1 0.814%, CCc1cccc(-n2nnc(-c3nsc(NC(=O)c4ccc(C)cc4)n3)c2C)c1 -17.2%, Fc1ccc(C(Nc2ccccc2Cl)c2nnc(-c3ccccc3Cl)o2)cc1 (stereo not drawn) -22.5%, Cc1ccc(NC(=O)[C@H]2O[C@@H]3OC(C)(C)O[C@@H]3[C@H]3OC(C)(C)O[C@H]32)cc1F -13.4%, Cc1ccc(NC(=O)c2cccc(N3CCCS3(=O)=O)c2)cc1C 1.15%, CC(C(=O)Nc1ccccc1C(F)(F)F)n1nnc2sc3c(c2c1=O)CCCC3 (stereo not drawn) -7.42%, CCc1ccc(CNC(=O)CSc2c3c(nc4ccc(Cl)cc24)CCCC3)cc1 -0.268%, O=C(NCCn1cc(SCc2ccccc2F)c2ccccc21)c1cccs1 -14.6%, CCS(=O)(=O)NCC(c1ccco1)N1CCN(c2ccccc2)CC1 (stereo not drawn) -0.432%, CSc1nc(Nc2ccc(C)cc2)c(C#N)c(-c2ccccc2)n1 -8.88%, Cc1ccc2c(c1)C(c1ccccc1)N(C(=O)c1ccc(S(=O)(=O)N3CCCCC3)cc1)CC(=O)N2 (stereo not drawn) 4.83%, Cc1ccc(CSc2ncc(Cl)c(C(=O)Nc3nc4ccc(C)cc4s3)n2)cc1 3.92%, Oc1c(C(c2ccccc2)N2CCN(c3cccc(Cl)c3)CC2)sc2nc(-c3ccco3)nn12 (stereo not drawn) -5.34%, O=c1c(=O)n(-c2ccccc2)ccn1Cc1cccc(C(F)(F)F)c1 3.01%, O=C(NCc1ccc(F)cc1)c1ccc(CS(=O)Cc2ccc(Cl)cc2)o1 (stereo not drawn) -0.463%, Cc1ccc(NC(=O)c2cc3nc(-c4ccc5c(c4)OCO5)cc(C(F)(F)F)n3n2)cc1Cl 11.9%, COc1ccccc1CNS(=O)(=O)c1cc(Br)cc2c1N(C(C)=O)C(C)C2 (stereo not drawn) -0.0492%, O=C1COc2ccc(-c3cc(-c4ccc(F)cc4)c4c(n3)-c3cc(Cl)ccc3OC4)cc2N1 -4.57%, COc1cc(Cl)c(NC(=O)c2cc(CN3CCCC3)on2)c(OC)c1 -0.382%, Cc1c(C(=O)Nc2ccccc2Cl)sc2ncnc(N(C)C3CCCCC3)c12 -1.33%, CCc1ccc(CNC(=O)C2CCCN(c3nnc(C)c4c(C)n(-c5ccc(OC)cc5)nc34)C2)cc1 (stereo not drawn) -0.724%, Cc1ccc(N2CC(c3nnc(Cc4ccc(F)cc4)o3)CC2=O)cc1 (stereo not drawn) -1.37%, CC(CCc1ccccc1)NC(=O)Cn1c(=O)nc(-c2ccccc2F)c2cc(Cl)ccc21 (stereo not drawn) 7.65%, COc1ccc(Cn2ccnc2SCC(=O)NC2CCCC2)cc1 2.69%, Cc1oc(-c2ccccc2F)nc1CSCC(=O)NCc1ccccc1 1.95%, Cc1cccc(C)c1NC(=O)CSc1ncc2c(n1)-c1ccc(Cl)cc1N(Cc1ccccc1)S2(=O)=O 2.32%, CC(C)c1ccc(NC(=O)C2CCCN(S(=O)(=O)c3cccc4nsnc34)C2)cc1 (stereo not drawn) -14.2%, COc1ccc2c(c1)CC(C(=O)Nc1cccc(C)c1C)CO2 (stereo not drawn) -3.22%, COC(=O)c1ccc(NS(=O)(=O)c2c(C)nc3sccn3c2=O)cc1 3.59%, COc1cccc(-n2ccnc2SCC(=O)Nc2ccc(Cl)c(Cl)c2)c1 -19.3%, CCOC(=O)Cn1c(=O)n(C2CCCCC2)c2nc(-c3ccc(OCC)cc3)nc(C(N)=O)c21 -2.53%, COc1ccc(C2CC(=O)c3cnc4c(-c5ccccc5)c(C)nn4c3C2)cc1OC (stereo not drawn) -8.11%, CSc1ccc(CCNC(=O)c2ccc3c(c2)nc2n3CCCCC2)cc1 -12%, O=C(CSc1nccn1-c1ccc(Cl)cc1)Nc1cccc2ccccc12 -7.33%, Cc1c(-c2cccc(NC(=O)c3ccc(F)c(F)c3)c2)nc2ncccn12 -5.09%, Cc1nn(C)c2c1c(C(F)(F)F)cc(=O)n2C(C)C(=O)NCCc1ccc(Cl)cc1 (stereo not drawn) -3.83%, CCc1ccccc1NS(=O)(=O)c1ccc2oc(=O)c3ncn(C)c3c2c1 1.41%, N#Cc1ccc(C(=O)Nc2ccccc2-c2nc3ccccc3s2)c(F)c1 -1.56%, CCOC(=O)Cc1ccc(NC(=O)n2ncc3cc(Cl)ccc32)cc1 2.17%, CNS(=O)(=O)c1ccc(NC(=O)c2cnn3c(C(F)F)cc(-c4ccccc4)nc23)cc1 2.57%, CCOC(=O)c1cnc2c(Cl)c(Cl)ccc2c1NCCN1CCOCC1 4.31%, Cc1ccc(NC(=O)c2c(C)oc3ccc(O)c(CN4CCCC4)c23)c(C)c1 4.86%, CCc1ccc(NC(=O)C2CCCN(c3nn4cc(-c5ccc(OC)cc5)nc4s3)C2)cc1 (stereo not drawn) -5.81%, O=C(Nc1ccc(F)cc1Cl)C1CCN(c2ncnc3c2nc2n3CCCCC2)CC1 -3.2%, O=C(NCC(c1ccc2c(c1)OCO2)N1CCN(c2ccc(F)cc2)CC1)c1cccc([N+](=O)[O-])c1 (stereo not drawn) -2.41%, Cc1ccc2onc(CNC(=O)Nc3ccccc3C#N)c2c1 3.4%, COc1ccc(Nc2ncnc3c2c(-c2ccccc2)cn3-c2ccc(C)c(Cl)c2)cc1OC 9.58%
